Patent US10561143B2, “Fungicidal composition having synergistic effect” (JIANGSU HUIFENG AGROCHEMICAL CO., LTD., priority 2013, dated 2020)

Tested on: late blight pathogens of potato
Assay type: in vivo
Conditions: standard benziothiazolinone

Compound | ATI (actual toxicity index) (Table 13) | ATI (actual toxicity index) (Table 11) | ATI (actual toxicity index) (Table 12) | ATI (actual toxicity index) (Table 14) | ATI (actual toxicity index) (Table 15)
CC(C)OC(=O)N[C@H](C(=O)N[C@H](C)c1nc2ccc(F)cc2s1)C(C)C [Benthiavalicarb-isopropyl] | 92.422 |  |  |  | 
O=c1[nH]sc2ccccc12 [Benziothiazolinone] | 100.000 | 100.00 | 100.00 | 100.00 | 100.00
O=C(Nc1ccccc1-c1ccc(Cl)cc1)c1cccnc1Cl [Boscalid] |  |  | 88.43 |  | 
CSC1=N[C@@](C)(c2ccccc2)C(=O)N1Nc1ccccc1 [Fenamidone] |  |  |  |  | 93.01
CCC(C)(NC(=O)c1cc(Cl)c(C)c(Cl)c1)C(=O)CCl (stereo not shown) [Zoxamide] |  |  |  | 94.85 | 
COC(=O)N(OC)c1ccccc1COc1ccn(-c2ccc(Cl)cc2)n1 [pyraclostrobin] |  | 130.49 |  |  | 

Where two headings read alike, the source gives them in different places.
